In paper PMC9911399, “Two distinct binding modes provide the RNA-binding protein RbFox with extraordinary sequence specificity” one finds binding signal data, which are given here for 9 molecules.

To fix the notation:
T1: RBFOX1 RRM (Homo sapiens, UniProt Q9NWB1 109-208)
T1 sequence: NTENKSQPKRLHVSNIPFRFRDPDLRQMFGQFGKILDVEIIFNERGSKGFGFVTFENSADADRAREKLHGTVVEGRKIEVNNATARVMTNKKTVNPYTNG

B1: GGUAGGA (DNA:RNA)
RNA: GGGAGACCGGAAUUCAGAUUGUCCGGUAGGAUUAAAUCCCGUCGUAGCCACCA
DNA 1: CAATCTGAATTCCGGTCTCCC
DNA 2: TGGTGGCTACGACGGGATT
B2: AAGUUAG (DNA:RNA)
RNA: GGGAGACCGGAAUUCAGAUUGUCCAAGUUAGUUAAAUCCCGUCGUAGCCACCA
DNA 1: CAATCTGAATTCCGGTCTCCC
DNA 2: TGGTGGCTACGACGGGATT
B3: GAUUACC (DNA:RNA)
RNA: B2 RNA with A25G, G27U, U29A, A30C, G31C
DNA 1: CAATCTGAATTCCGGTCTCCC
DNA 2: TGGTGGCTACGACGGGATT
B4: CUCAUUA (DNA:RNA)
RNA: B1 RNA with G25C, G26U, U27C, G29U, G30U
DNA 1: CAATCTGAATTCCGGTCTCCC
DNA 2: TGGTGGCTACGACGGGATT
B5: CCCGCCG (DNA:RNA)
RNA: B2 RNA with A25C, A26C, G27C, U28G, U29C, A30C
DNA 1: CAATCTGAATTCCGGTCTCCC
DNA 2: TGGTGGCTACGACGGGATT
B6: CGCAGUG (DNA:RNA)
RNA: B1 RNA with G25C, U27C, G30U, A31G
DNA 1: CAATCTGAATTCCGGTCTCCC
DNA 2: TGGTGGCTACGACGGGATT
B7: AUAAUAC (DNA:RNA)
RNA: B2 RNA with A26U, G27A, U28A, G31C
DNA 1: CAATCTGAATTCCGGTCTCCC
DNA 2: TGGTGGCTACGACGGGATT
B8: CCACAUA (DNA:RNA)
RNA: B1 RNA with G25C, G26C, U27A, A28C, G29A, G30U
DNA 1: CAATCTGAATTCCGGTCTCCC
DNA 2: TGGTGGCTACGACGGGATT
B9: GGCCGGA (DNA:RNA)
RNA: B1 RNA with U27C, A28C
DNA 1: CAATCTGAATTCCGGTCTCCC
DNA 2: TGGTGGCTACGACGGGATT

Positions count from the first letter of the chain named. The list shows a part of the results.

The target of this assay is T1, RBFOX1 RRM. Nature of the assay: EMSA; HiTS-Eq, 1 nM pool, 10 min; buffer printed only for the single-RNA assays: 10 mM Tris pH 7.5, 150 mM NaCl, 3.4 mM EDTA, 0.001% NP-40, 30 C. The note with it: tags: His6 N-terminal (pET28a); label: 5' 32P. The procedure, abridged: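 Relative association constants, normalised to the cognate motif, were derived by comparing read counts of each RNA species with those of the control reaction. The RNA sequenced was the free fraction, separated by 8% native PAGE after a 10 min equilibration in 50 µL of 1 nM 5′-radiolabelled RNA (7 randomized nucleotides) with increasing concentrations of purified wild-type or mutant RbFox RRM.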
For orientation: A gel shift assay detects complexes by their altered migration in electrophoresis.
B1: the binding signal is 0.00184 KA relative to UGCAUGU.
B2: the binding signal was 0.0116 KA relative to UGCAUGU.
As to B3, the binding signal is 0.00633 KA relative to UGCAUGU.
With B4 the figure was 0.000718 KA relative to UGCAUGU; with B5, 0.0132 KA relative to UGCAUGU; with B6, 0.0177 KA relative to UGCAUGU.
B7: the binding signal was 0.00118 KA relative to UGCAUGU.
Consider B8, for which the binding signal was 0.000851 KA relative to UGCAUGU.
B9: the binding signal was 0.0111 KA relative to UGCAUGU.
